Results from the supplement of paper PMC4604168 (melanoma cell lines).
This is one part of the list. Many values rest on one well or one pass, so single values are uncertain.
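Further: cells treated in 1,536-well plates, then fixed and DAPI-stained, with nuclei counted from automated high-throughput microscope images.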

Each compound was assayed on A2058 (assay: cell count relative to DMSO control; melanoma cells; higher = more viable cells). Settings: library dose: standard library concentration; 72 h.
In the case of `CN(c1ncccc1CNc1nc(Nc2ccc3c(c2)CC(=O)N3)ncc1C(F)(F)F)S(C)(=O)=O` + Cn1c(=O)n(-c2ccc(C(C)(C)C#N)cc2)c2c3cc(-c4cnc5ccccc5c4)ccc3ncc21 [NVP-BEZ235] (first compound 0.4 µM, partner dose 0.02 µM), the cell count is reported as 43.3%. `CN(c1ncccc1CNc1nc(Nc2ccc3c(c2)CC(=O)N3)ncc1C(F)(F)F)S(C)(=O)=O` + OCCn1cc(-c2cnc3nnn(Cc4ccc5ncccc5c4)c3n2)cn1 [PF04217903] (first compound 0.4 µM, partner dose 5 µM) was tested, and the cell count was 76%. `CS(=O)(=O)c1ccc(C(=O)Nc2ccc(Cl)c(-c3ccccn3)c2)c(Cl)c1` [vismodegib] + O=C(Nc1cccc(Cl)c1)Nc1ncc(CCNc2ncnc3ccsc23)s1 [SNS314] (first compound 5 µM, partner dose 0.004 µM) was tested, and the cell count was 89.5%. `CN(c1ncccc1CNc1nc(Nc2ccc3c(c2)CC(=O)N3)ncc1C(F)(F)F)S(C)(=O)=O` + C=C(c1ccc(C(=O)O)cc1)c1cc2c(cc1C)C(C)(C)CCC2(C)C [Bexarotene] (first compound 0.4 µM, partner dose 10 µM) gave a cell count of 76%. `NC1(c2ccc(-c3nc4ccn5c(=O)[nH]nc5c4cc3-c3ccccc3)cc2)CCC1` + Nc1nc(F)nc2c1ncn2[C@@H]1O[C@H](CO)[C@@H](O)[C@@H]1O [fludarabine] (first compound 2 µM, partner dose 1 µM) gave a cell count of 70.3%. `NC1(c2ccc(-c3nc4ccn5c(=O)[nH]nc5c4cc3-c3ccccc3)cc2)CCC1` + CS(=O)(=O)CCNCc1ccc(-c2ccc3ncnc(Nc4ccc(OCc5cccc(F)c5)c(Cl)c4)c3c2)o1 [lapatinib] (first compound 2 µM, partner dose 4 µM) showed a cell count of 39.4%. `CN(c1ncccc1CNc1nc(Nc2ccc3c(c2)CC(=O)N3)ncc1C(F)(F)F)S(C)(=O)=O` + Cc1cc(N2CCOCC2)cc2[nH]c(-c3c(NC[C@@H](O)c4cccc(Cl)c4)cc[nH]c3=O)nc12 [BMS536924] (first compound 0.4 µM, partner dose 1 µM) gave a cell count of 92.2%. In the case of `CS(=O)(=O)c1ccc(C(=O)Nc2ccc(Cl)c(-c3ccccn3)c2)c(Cl)c1` [vismodegib] + COc1cc2c(Oc3ccc4[nH]c(C)cc4c3F)ncnc2cc1OCCCN1CCCC1 [cediranib] (first compound 5 µM, partner dose 2 µM), the cell count is reported as 117%. With `CN(c1ncccc1CNc1nc(Nc2ccc3c(c2)CC(=O)N3)ncc1C(F)(F)F)S(C)(=O)=O` + COCC[n+]1c2c(n(Cc3cnccn3)c1C)C(=O)c1ccccc1C2=O [YM155] (first compound 0.4 µM, partner dose 0.002 µM) the cell count was 17.3%. `CCCS(=O)(=O)Nc1ccc(F)c(C(=O)c2c[nH]c3ncc(Cl)cc23)c1F` + OCCn1cc(-c2cnc3nnn(Cc4ccc5ncccc5c4)c3n2)cn1 [PF04217903] (first compound 0.4 µM, partner dose 5 µM) showed a cell count of 91%. `CS(=O)(=O)c1ccc(C(=O)Nc2ccc(Cl)c(-c3ccccn3)c2)c(Cl)c1` [vismodegib] + Cc1nc(Nc2ncc(C(=O)Nc3c(C)cccc3Cl)s2)cc(N2CCN(CCO)CC2)n1 [dasatanib] (first compound 5 µM, partner dose 0.02 µM) was tested, and the cell count was 66.5%. With `C=C(c1ccc(C(=O)O)cc1)c1cc2c(cc1C)C(C)(C)CCC2(C)C` [Bexarotene] + OCCn1cc(-c2cnc3nnn(Cc4ccc5ncccc5c4)c3n2)cn1 [PF04217903] (first compound 10 µM, partner dose 5 µM) the cell count was 82.6%. In the case of `CS(=O)(=O)c1ccc(C(=O)Nc2ccc(Cl)c(-c3ccccn3)c2)c(Cl)c1` [vismodegib] + CN(C)S(=O)(=O)c1ccc2c(c1)/C(=C/c1cc3c([nH]1)CCCC3)C(=O)N2 [SU6656] (first compound 5 µM, partner dose 2 µM), the cell count is reported as 101%. Work on `CS(=O)(=O)c1ccc(C(=O)Nc2ccc(Cl)c(-c3ccccn3)c2)c(Cl)c1` [vismodegib] + C#Cc1cccc(Nc2ncnc3cc(OCCOC)c(OCCOC)cc23)c1 [erlotinib] (first compound 5 µM, partner dose 4 µM) yielded a cell count of 85.2%. For `CS(=O)(=O)c1ccc(C(=O)Nc2ccc(Cl)c(-c3ccccn3)c2)c(Cl)c1` [vismodegib] + O=C(O)c1ccc(-c2c[nH]c3ncc(-c4ccccc4)cc23)cc1C1CCCC1 [GSK650394] (first compound 5 µM, partner dose 0.8 µM), the cell count was 87.9%. `CS(=O)(=O)c1ccc(C(=O)Nc2ccc(Cl)c(-c3ccccn3)c2)c(Cl)c1` [vismodegib] + O=C(O)c1ccc2c(c1)nc(Nc1cccc(Cl)c1)c1ccncc12 [CX4945] (first compound 5 µM, partner dose 2 µM) was tested, and the cell count was 72.6%.
